The results in this text go back to publication PMC12136788.

This is one part of the list.

T1: UNK ZnF1-3 (human, UniProt Q9C0B0 31-174)
T1 sequence: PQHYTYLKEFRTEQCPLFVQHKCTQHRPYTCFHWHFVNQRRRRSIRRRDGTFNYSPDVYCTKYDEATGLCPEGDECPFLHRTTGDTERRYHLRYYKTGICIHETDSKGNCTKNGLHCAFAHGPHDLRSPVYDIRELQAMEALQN

B1: chrX:45560084:45560085:-_ENSMUSG00000036985_ENSMUST00000037960|mus_hu|FALSE|FALSE (ssRNA)
RNA: GGGAGUUCUACAGUCCGACGAUCGCGAUUACACGAGAGAAGAAACAGAGGCUGAGCCCAGCUUUGAAAUCACGUUGCCUGCUAUUCCUGCCGCUGGGUCAAACAUCAUCAAAAGUCCAAUUGCUAGCCCUGGAAGACAAUCUCCAACAGAGGAUUGAGCAUCA
B2: chr15:43486971:43486972:+_ENSG00000166946_ENST00000300213|hu_hu|FALSE|FALSE (ssRNA)
RNA: GGGAGUUCUACAGUCCGACGAUCGAGCUCCUUGAUUCUAUUCAUGCAAUGAUCAAUGGCAUUAAUAAGUAAAGGGAUCCAACUAUCUUCUGGCUGAGGGGUCACAUGACUUGCUUUUGUAAUUUCAAGUGCCUUCUUUAAAACCAACAGAGGAUUGAGCAUCA
B3: chr6:124691279:124691280:-_ENSMUSG00000072772_ENSMUST00000004389|mus_mus|motif|central (ssRNA)
RNA: GGGAGUUCUACAGUCCGACGAUCCAGUGAAAUUGGGAGGGGUUUUCCGACCGAAGUCAGAAAACCUGCUAGACAAAUUCGGAAAGAGCUGUAACACUUGCGGAAGUGCGUCUGUAGCGAGCCAGGGAAGGACAUCAACUCCACCAACAGAGGAUUGAGCAUCA
B4: chr8:104447970:104447971:+_ENSG00000164934_ENST00000297579|hu_hu|hu_hu_hu_mus_False|1_58 (ssRNA)
RNA: GGGAGUUCUACAGUCCGACGAUCAUACACUUCCCUGCUUCGGCUCUUGUCCACAGGAAAGAUUCUAAUAGACUUAUCGAAACUAGCAGACACAAAUUCCUUCCCAGUGGGAGAGUAGUCCACAUCAAGUACUGCAGAUACAUGCAACAGAGGAUUGAGCAUCA
B5: chr14:45963330:45963331:+_ENSMUSG00000021832_ENSMUST00000022380|perfect_dup|motif|central (ssRNA)
RNA: GGGAGUUCUACAGUCCGACGAUCGAUUUUCAAUAUAUCUAAUCUUGCUUGUUCAUUUGGUAAAUCGAUAUGUAUUUUUCGGUCGGAUCUUCCUGGGCGCAGCAAAGCAGGAUCCAGUGUAUCUGGUCUGUUUGUAGCCAUGAUCAACAGAGGAUUGAGCAUCA
B6: chr10:126679069:126679070:-_ENSMUSG00000074657_ENSMUST00000099172|mus_hu|FALSE|FALSE (ssRNA)
RNA: GGGAGUUCUACAGUCCGACGAUCGCGGAUCUCCUCCUCGUAUUUCUGCCGCUCCUCGGGCGCGAUGCGCACCACGAUGGAUGAGUUGUCAUUCACAGGGGUCUCCUCACAGAGCUCGGCUCCCAGGGCUGCCUCCUCCCCAGCCAACAGAGGAUUGAGCAUCA
B7: chr16:94690093:94690094:+_ENSMUSG00000040785_ENSMUST00000117648|mus_hu|mus_mus_mus_hu_True|58_58 (ssRNA)
RNA: GGGAGUUCUACAGUCCGACGAUCGGGCUGGGAUGACGGACACACAGCCUCGAUUCCAGGGGGAAAAAGUCUUAGUCAAUACUAAUUAAAAAGUGUUAAUGAUUUUUGAAAAUCAGAUUACAUCUAUAAAAGAUGAAAAGCAAACAACAGAGGAUUGAGCAUCA
B8: chr6:29325759:29325760:+_ENSMUSG00000029767_ENSMUST00000031779|mus_mus|FALSE|FALSE (ssRNA)
RNA: GGGAGUUCUACAGUCCGACGAUCAGAUGAGAAAACGGCUCAAGUGGUCCUCAAACCAAGAGCCCCCUCUGUACAUCCUUCUAUCCUUGAGGCAAAGCUCAAGCCCUGGUGAGCAGAGGCCUGGGAGAAGAGUGGUUUGCCUUCCAACAGAGGAUUGAGCAUCA
B9: chr5:134235298:134235299:+_ENSG00000113621_ENST00000507024|hu_mus|motif|central (ssRNA)
RNA: GGGAGUUCUACAGUCCGACGAUCUUGUCCUGGAAUCAGCCACCGAAUACUCUCAGUGCGGAUGGUAGCAUACAUAAUGAAACGGAUUAAAAAGAACAAGGAAAACACCAGCAACCAAUCCACAGUCUUUAUCAAAGUGCUGGGCAACAGAGGAUUGAGCAUCA
B10: chr22:32879901:32879902:+_ENSG00000100225_ENST00000397426|hu_mus|hu_hu_hu_mus_False|1_38 (ssRNA)
RNA: GGGAGUUCUACAGUCCGACGAUCCUCUUCCAUACUCAUGGCAUCCUGAAUUGACUCAGCUUCAACAUUUUGACUAGGCCCUUCCAUACUGUCAUCAUUCCAAACACCAAAUGGGGUGGCCUGUCCUUGGGAUGAAUCACUUGGCAACAGAGGAUUGAGCAUCA
B11: chr14:89307221:89307222:+_ENSG00000165533_ENST00000346301|hu_mus|hu_hu_hu_mus_False|18_58 (ssRNA)
RNA: GGGAGUUCUACAGUCCGACGAUCUCCUGUUUGGUUAGUGCCAGGGAGCUUCAAAGAUGUGCCAGGGCGUGGGACCUGAGCUAUAGCAUUUUCAUCCAGGAUCAUUUCAGCAAUUCCUUCCUGAUCUACAUCAAUUUCAUCUAUCAACAGAGGAUUGAGCAUCA
B12: chr2:61749799:61749800:-_ENSG00000082898_ENST00000401558|hu_mus|FALSE|FALSE (ssRNA)
RNA: GGGAGUUCUACAGUCCGACGAUCUCCUUCACACUGGUUCCUUGGAAGGAUCUUCCACCUUGUUUUGAUCACAUUUUCCAAAAUCUGUAGUCCAUAGUAUUUCGUGUUCAUGUUCUGCGAAAACUCCAAUAUUGUGUCGACCCGCAACAGAGGAUUGAGCAUCA
B13: chr4:76733432:76733433:+_ENSG00000138768_ENST00000264904|hu_mus|FALSE|FALSE (ssRNA)
RNA: GGGAGUUCUACAGUCCGACGAUCUGCUAACAGCACCAAAAGGUCAUCUUGUUCUUUCUUAGAAUCCGUAACUUCCAAGUCCAGCUUGUCUUUCUCGGUUUGCAGGAUGGCGAUGGUGCUAUUGGAUGAGUCCAGCUGCUUUUGCAACAGAGGAUUGAGCAUCA
B14: chr4:57314706:57314707:+_ENSG00000128050_ENST00000264221|hu_mus|hu_hu_hu_mus_True|38_78 (ssRNA)
RNA: GGGAGUUCUACAGUCCGACGAUCCAGAAUUUCAAAAAUAGCUUGUGUGGCAUGACUCAUGAUAUCCACUUCAGUCUGCCCUAUAACAAGGCCAGCAAAGCAAAAUUUUGCAGCAAUGAGUUGCUCCUCAGACCACUGUGGAUCCAACAGAGGAUUGAGCAUCA

The target of the test is T1, UNK ZnF1-3. The experiment in a line: nsRBNS (natural sequence RNA bind-n-seq); RBNS binding buffer (assumed for nsRBNS): 25 mM Tris pH 7.5, 150 mM KCl, 3 mM MgCl2, 0.01% Triton X-100, 500 ug/ml BSA, 20 U/ml SUPERase-In, 4 C; UNK is unkempt and MSI1 is Musashi-1; names of the RNAs are library labels; protein concentration not given here; high values mean tight binding.
In turn, B1 had a binding signal of 1.97 enrichment R. Then B2, with 1.44 enrichment R; and B3, with 1.8 enrichment R.

Consider B4, for which the binding signal turned out to be 0.841 enrichment R.

Molecule B5 showed a binding signal of 0.374 enrichment R. Then B6, with 1.56 enrichment R; and B7, with 0.917 enrichment R.

In turn, B8 gave a binding signal of 0.768 enrichment R. In the case of B9 it was 1.37 enrichment R. In the case of B10, the binding signal is 0.945 enrichment R.

Consider B11, for which the binding signal amounted to 0.883 enrichment R. The molecule B12 had a binding signal of 0.546 enrichment R.

As to B13, the binding signal was found to be 0.313 enrichment R. The molecule B14 showed a binding signal of 1.04 enrichment R.
